Article PMC10252889
These are yes or no findings as the source states them, for the method shown. In cells and extracts the contact can be indirect. Some entries that bind do so weakly or less than the wild type. Where a sequence is shown, tags or fusion partners need not be part of it. Each block holds one binder with its values, some of them ahead of it.

Protein sequences, listed by entry. Tags and fused reporters are not part of them. Lines headed by an entry give the natural chain unless they say otherwise; changes in a name come on top. Chains listed by the source or under a name are the forms on record and can include a tag or linker.
Flag-tagged TREK1 (P97438, form named): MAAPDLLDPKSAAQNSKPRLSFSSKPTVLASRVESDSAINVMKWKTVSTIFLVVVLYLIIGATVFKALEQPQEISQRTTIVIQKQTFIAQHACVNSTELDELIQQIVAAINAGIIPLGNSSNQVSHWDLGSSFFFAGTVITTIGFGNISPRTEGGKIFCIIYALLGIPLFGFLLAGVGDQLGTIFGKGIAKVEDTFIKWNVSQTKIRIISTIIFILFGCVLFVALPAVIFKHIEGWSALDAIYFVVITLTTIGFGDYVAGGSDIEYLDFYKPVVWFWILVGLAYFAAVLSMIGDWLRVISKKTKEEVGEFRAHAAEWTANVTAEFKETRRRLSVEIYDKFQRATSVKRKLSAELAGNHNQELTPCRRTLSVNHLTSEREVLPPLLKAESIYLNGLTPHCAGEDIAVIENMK
UniProt Q8BUW1: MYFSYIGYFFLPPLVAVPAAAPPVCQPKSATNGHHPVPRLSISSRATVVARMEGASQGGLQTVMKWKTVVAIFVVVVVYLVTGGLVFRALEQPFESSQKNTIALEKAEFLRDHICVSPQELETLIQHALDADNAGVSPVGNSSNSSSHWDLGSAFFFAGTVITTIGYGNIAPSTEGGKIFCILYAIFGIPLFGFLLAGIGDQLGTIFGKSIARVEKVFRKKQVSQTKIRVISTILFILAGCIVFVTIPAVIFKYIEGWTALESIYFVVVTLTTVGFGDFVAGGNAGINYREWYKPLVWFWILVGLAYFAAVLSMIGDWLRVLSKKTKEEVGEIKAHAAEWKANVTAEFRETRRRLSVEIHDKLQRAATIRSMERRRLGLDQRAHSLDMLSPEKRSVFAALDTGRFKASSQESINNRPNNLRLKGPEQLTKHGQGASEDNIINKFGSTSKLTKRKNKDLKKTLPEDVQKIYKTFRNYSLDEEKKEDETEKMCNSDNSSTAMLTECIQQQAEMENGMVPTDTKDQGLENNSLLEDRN

Columns and labels:
[1] = target: VC-tagged TREK1 (TWIK-related K+ channel 1) (mouse) (UniProt P97438); assay: split reporter; BiFC with split Venus (VN-tagged β-COP, VC-tagged channel) in co-transfected HEK293T cells, 24 h, fixed with 4% paraformaldehyde, confocal microscopy
[2] = target: T1, VC-tagged TRAAK (TWIK-related acid-arachidonic activated K+ channel) (mouse) (UniProt O88454); assay: as above
T1 sequence: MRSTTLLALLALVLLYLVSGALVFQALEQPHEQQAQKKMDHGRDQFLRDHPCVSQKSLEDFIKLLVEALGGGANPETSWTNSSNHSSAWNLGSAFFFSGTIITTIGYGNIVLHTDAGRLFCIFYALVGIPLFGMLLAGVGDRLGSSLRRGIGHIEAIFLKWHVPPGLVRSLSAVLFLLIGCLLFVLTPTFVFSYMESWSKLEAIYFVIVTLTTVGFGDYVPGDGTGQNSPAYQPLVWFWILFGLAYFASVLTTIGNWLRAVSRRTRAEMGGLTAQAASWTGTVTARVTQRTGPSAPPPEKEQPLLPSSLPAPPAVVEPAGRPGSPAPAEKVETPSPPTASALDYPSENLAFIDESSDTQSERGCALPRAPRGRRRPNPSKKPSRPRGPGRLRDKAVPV

[3] = target: VC-tagged TREK2 (TWIK-related K+ channel 2) (mouse) (UniProt Q8BUW1); assay: as above
[4] = target: Flag-tagged TREK2 (mouse) (UniProt Q8BUW1); assay: co-IP; HEK293T cells co-transfected with Flag-tagged channel and GFP-β-COP; lysate immunoprecipitated with anti-Flag overnight at 4 °C, Protein G agarose, blotted with anti-GFP
[5] = target: T2, Flag-tagged TRAAK (mouse) (UniProt O88454); assay: as above
T2 sequence: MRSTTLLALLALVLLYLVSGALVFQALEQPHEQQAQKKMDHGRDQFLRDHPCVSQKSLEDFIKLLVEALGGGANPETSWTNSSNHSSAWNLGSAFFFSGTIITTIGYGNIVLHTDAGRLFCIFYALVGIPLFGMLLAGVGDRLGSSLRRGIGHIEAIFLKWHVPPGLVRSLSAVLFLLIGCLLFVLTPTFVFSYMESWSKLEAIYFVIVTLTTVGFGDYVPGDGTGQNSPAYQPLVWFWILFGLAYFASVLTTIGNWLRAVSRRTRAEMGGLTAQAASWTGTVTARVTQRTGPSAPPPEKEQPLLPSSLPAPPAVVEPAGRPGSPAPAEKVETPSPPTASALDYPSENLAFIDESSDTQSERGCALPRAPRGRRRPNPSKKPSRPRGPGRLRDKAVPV

[6] = target: Flag-tagged TREK1 (mouse) (UniProt P97438); assay: as above
GFP-tagged TREK2 (mouse) = GFP-tagged TREK2 (mouse) (UniProt Q8BUW1); assay: co-IP; HEK293T cells co-transfected with GFP-tagged TREK2 or its deletion mutants and mCh-β-COP; lysate immunoprecipitated with anti-GFP overnight at 4 °C, Protein G agarose, blotted with anti-mCh (anti-RFP)

binding [1]: binds
binding [2]: no binding
binding [3]: binds
B1: VN-tagged β-COP (β-coat protein) (protein, UniProt Q9JIF7 1-953)
chain: MTAAENVCYTLINVPMDSEPPSEISLKNDLEKGDVKSKTEALKKVIIMILNGEKLPGLLMTIIRFVLPLQDHTIKKLLLVFWEIVPKTTPDGRLLHEMILVCDAYRKDLQHPNEFIRGSTLRFLCKLKEAELLEPLMPAIRACLEHRHSYVRRNAVLAIYTIYRNFEHLIPDAPELIHDFLVNEKDASCKRNAFMMLIHADQDRALDYLSTCIDQVQTFGDILQLVIVELIYKVCHANPSERARFIRCIYNLLQSSSPAVKYEAAGTLVTLSSAPTAIKAAAQCYIDLIIKESDNNVKLIVLDRLVELKEHPAHERVLQDLVMDILRVLSTPDLEVRKKTLQLALDLVSSRNVEELVIVLKKEVIKTNNVSEHEDTDKYRQLLVRTLHSCSVRFPDMAANVIPVLMEFLSDSNEAAAADVLEFVREAIQRFDNLRMLIVEKMLEVFHAIKSVKIYRGALWILGEYCSTKEDIQSVMTEVRRSLGEIPIVESEIKKEAGELKPEEEITVGPVQKLVTEMGTYATQSALSSSRPTKKEEDRPPLRGFLLDGDFFVAASLATTLTKIALRYVALVQEKKKQNSFVAEAMLLMATILHLGKSSLPKKPITDDDVDRISLCLKVLSECSPLMNDIFNKECRQSLSQMLSAKLEEEKLSQKKESEKRNVTVQPDDPISFMQLTAKNEMNCKEDQFQLSLLAAMGNTQRKEAADPLASKLNKVTQLTGFSDPVYAEAYVHVNQYDIVLDVLVVNQTSDTLQNCTLELATLGDLKLVEKPSPLTLAPHDFANIKANVKVASTENGIIFGNIVYDVSGAASDRNCVVLSDIHIDIMDYIQPATCTDAEFRQMWAEFEWENKVTVNTNMTDLNDYLQHILKSTNMKCLTPEKALSGYCGFMAANLYARSIFGEDALANVSIEKPVHQGPDAAVTGHIRIRAKSQGMALSLGDKINLSQKKTSL

binding [4]: binds
binding [5]: no binding
binding [6]: binds
B2: GFP-tagged β-COP (protein, UniProt Q9JIF7 1-953)
chain: MTAAENVCYTLINVPMDSEPPSEISLKNDLEKGDVKSKTEALKKVIIMILNGEKLPGLLMTIIRFVLPLQDHTIKKLLLVFWEIVPKTTPDGRLLHEMILVCDAYRKDLQHPNEFIRGSTLRFLCKLKEAELLEPLMPAIRACLEHRHSYVRRNAVLAIYTIYRNFEHLIPDAPELIHDFLVNEKDASCKRNAFMMLIHADQDRALDYLSTCIDQVQTFGDILQLVIVELIYKVCHANPSERARFIRCIYNLLQSSSPAVKYEAAGTLVTLSSAPTAIKAAAQCYIDLIIKESDNNVKLIVLDRLVELKEHPAHERVLQDLVMDILRVLSTPDLEVRKKTLQLALDLVSSRNVEELVIVLKKEVIKTNNVSEHEDTDKYRQLLVRTLHSCSVRFPDMAANVIPVLMEFLSDSNEAAAADVLEFVREAIQRFDNLRMLIVEKMLEVFHAIKSVKIYRGALWILGEYCSTKEDIQSVMTEVRRSLGEIPIVESEIKKEAGELKPEEEITVGPVQKLVTEMGTYATQSALSSSRPTKKEEDRPPLRGFLLDGDFFVAASLATTLTKIALRYVALVQEKKKQNSFVAEAMLLMATILHLGKSSLPKKPITDDDVDRISLCLKVLSECSPLMNDIFNKECRQSLSQMLSAKLEEEKLSQKKESEKRNVTVQPDDPISFMQLTAKNEMNCKEDQFQLSLLAAMGNTQRKEAADPLASKLNKVTQLTGFSDPVYAEAYVHVNQYDIVLDVLVVNQTSDTLQNCTLELATLGDLKLVEKPSPLTLAPHDFANIKANVKVASTENGIIFGNIVYDVSGAASDRNCVVLSDIHIDIMDYIQPATCTDAEFRQMWAEFEWENKVTVNTNMTDLNDYLQHILKSTNMKCLTPEKALSGYCGFMAANLYARSIFGEDALANVSIEKPVHQGPDAAVTGHIRIRAKSQGMALSLGDKINLSQKKTSL

binding (GFP-tagged TREK2 (mouse)): binds
B3: mCherry-tagged β-COP (protein, UniProt Q9JIF7 1-953)
chain: MTAAENVCYTLINVPMDSEPPSEISLKNDLEKGDVKSKTEALKKVIIMILNGEKLPGLLMTIIRFVLPLQDHTIKKLLLVFWEIVPKTTPDGRLLHEMILVCDAYRKDLQHPNEFIRGSTLRFLCKLKEAELLEPLMPAIRACLEHRHSYVRRNAVLAIYTIYRNFEHLIPDAPELIHDFLVNEKDASCKRNAFMMLIHADQDRALDYLSTCIDQVQTFGDILQLVIVELIYKVCHANPSERARFIRCIYNLLQSSSPAVKYEAAGTLVTLSSAPTAIKAAAQCYIDLIIKESDNNVKLIVLDRLVELKEHPAHERVLQDLVMDILRVLSTPDLEVRKKTLQLALDLVSSRNVEELVIVLKKEVIKTNNVSEHEDTDKYRQLLVRTLHSCSVRFPDMAANVIPVLMEFLSDSNEAAAADVLEFVREAIQRFDNLRMLIVEKMLEVFHAIKSVKIYRGALWILGEYCSTKEDIQSVMTEVRRSLGEIPIVESEIKKEAGELKPEEEITVGPVQKLVTEMGTYATQSALSSSRPTKKEEDRPPLRGFLLDGDFFVAASLATTLTKIALRYVALVQEKKKQNSFVAEAMLLMATILHLGKSSLPKKPITDDDVDRISLCLKVLSECSPLMNDIFNKECRQSLSQMLSAKLEEEKLSQKKESEKRNVTVQPDDPISFMQLTAKNEMNCKEDQFQLSLLAAMGNTQRKEAADPLASKLNKVTQLTGFSDPVYAEAYVHVNQYDIVLDVLVVNQTSDTLQNCTLELATLGDLKLVEKPSPLTLAPHDFANIKANVKVASTENGIIFGNIVYDVSGAASDRNCVVLSDIHIDIMDYIQPATCTDAEFRQMWAEFEWENKVTVNTNMTDLNDYLQHILKSTNMKCLTPEKALSGYCGFMAANLYARSIFGEDALANVSIEKPVHQGPDAAVTGHIRIRAKSQGMALSLGDKINLSQKKTSL
